# Measured values reported in article PMC4336329 (PLoS ONE, 2015).
# Among all 310,000 compounds or so, about 14,000 (4.5%) showed an effect of 50% or more. The effect is printed as a negative number. The list shows a part of the results.
# Target: human ether-à-go-go-related gene (hERG) potassium channel (human, UniProt Q12809)
# Test: primary screen, population patch clamp on CHO cells stably expressing hERG
# 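Note: peak tail current of the secondary pulse compared with the same well before compound.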
# Sequence of human ether-à-go-go-related gene (hERG) potassium channel (Q12809 whole entry, looked up): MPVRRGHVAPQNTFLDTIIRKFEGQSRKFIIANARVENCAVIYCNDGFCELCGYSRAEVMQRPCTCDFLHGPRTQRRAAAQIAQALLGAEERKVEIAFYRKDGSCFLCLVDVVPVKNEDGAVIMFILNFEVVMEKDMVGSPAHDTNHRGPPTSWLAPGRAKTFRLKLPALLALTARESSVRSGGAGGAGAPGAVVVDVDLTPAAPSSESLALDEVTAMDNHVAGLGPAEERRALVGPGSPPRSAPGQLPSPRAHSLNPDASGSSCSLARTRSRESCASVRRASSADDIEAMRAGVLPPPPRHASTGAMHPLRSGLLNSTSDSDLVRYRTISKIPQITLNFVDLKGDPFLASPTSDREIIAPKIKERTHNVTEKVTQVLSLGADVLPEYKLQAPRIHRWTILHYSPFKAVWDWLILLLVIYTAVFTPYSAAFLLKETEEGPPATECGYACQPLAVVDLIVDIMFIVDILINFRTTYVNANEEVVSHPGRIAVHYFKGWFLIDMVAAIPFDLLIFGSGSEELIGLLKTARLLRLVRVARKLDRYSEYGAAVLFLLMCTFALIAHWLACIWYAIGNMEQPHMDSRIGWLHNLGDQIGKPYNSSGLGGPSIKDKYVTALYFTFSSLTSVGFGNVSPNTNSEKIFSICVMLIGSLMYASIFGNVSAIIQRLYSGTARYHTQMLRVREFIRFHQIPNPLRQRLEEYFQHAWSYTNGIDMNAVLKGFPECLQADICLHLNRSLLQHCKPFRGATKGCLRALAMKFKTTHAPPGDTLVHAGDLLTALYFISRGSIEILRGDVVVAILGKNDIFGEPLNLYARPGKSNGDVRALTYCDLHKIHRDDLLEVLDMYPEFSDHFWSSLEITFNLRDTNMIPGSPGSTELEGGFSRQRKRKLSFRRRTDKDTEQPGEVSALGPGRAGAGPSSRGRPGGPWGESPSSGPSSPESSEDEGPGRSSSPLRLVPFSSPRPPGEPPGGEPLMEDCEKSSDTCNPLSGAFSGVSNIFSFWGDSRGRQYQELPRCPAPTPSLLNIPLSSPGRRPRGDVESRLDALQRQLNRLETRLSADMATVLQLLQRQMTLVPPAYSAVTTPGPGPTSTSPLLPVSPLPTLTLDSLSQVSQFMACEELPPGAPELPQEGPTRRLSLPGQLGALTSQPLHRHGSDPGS
row,SMILES,"hERG current change (%, negative = inhibition) at 10uM"
1,CN1CCN(c2nc(N)c(Br)c(Cl)n2)CC1,-1.52%
2,Cc1ccc(S(=O)(=O)Nc2ccc3nc(C)sc3c2)c(C)c1,-21.7%
3,O=C(Cn1ccc2cc(S(=O)(=O)N3CCCC3)ccc21)NCc1ccccc1,21.3%
4,CC(C)Nc1nc(NNc2nc(Cl)nc(NC(C)(C)C)n2)nc(NC(C)C)n1,10.1%
5,O=C(C(=O)N1CCN(c2cccc(Cl)c2)CC1)N1CCCCC1,5.36%
6,Cc1ccn(C(=O)c2cc3ccccc3oc2=O)n1,-4.47%
7,CCOC(=O)c1nnn2c1nc(N1CCCCC1)c1ccccc12,-23.8%
8,Cc1sc2nc(CSC(C)C(=O)Nc3ccc(C#N)cc3)[nH]c(=O)c2c1C (centres unmarked),-11%
9,COc1cccc(NC(=O)C2CCN(C(=O)[C@@H]3Cc4ccccc4CN3)CC2)c1,-48.1%
10,O=c1c2ccccc2c(C=NC2CCS(=O)(=O)C2)c(O)n1-c1ccccc1 (centres unmarked),12%
11,COc1ccc(OC)c2c1cc(C(=O)N[C@H](C(=O)N1CCC(C(=O)O)CC1)C(C)C)n2C,20.9%
12,COc1ccc(S(=O)(=O)N2CCc3ccccc3C2)cc1,39.7%
13,CCC(=O)Nc1ccc(-c2ccc(N3CCN(C)CC3)nn2)cc1,13.3%
14,CC1CCCC(C)N1CCCNC(=O)Cn1cc2c(n1)CCCC2 (centres unmarked),-3.99%
15,Cc1c(Br)cc(C(=O)N2CCCC2)c(C)c1C,0.525%
16,COC(=O)NNC(=O)COc1cc(C)ccc1C,4.95%
17,N#C/C(=C\c1ccc[nH]1)C(=O)Nc1ccccc1[N+](=O)[O-],6.78%
18,O=S(=O)(c1cccc(C(F)(F)F)c1)N1CCN(c2nnnn2-c2ccccc2)CC1,22.9%
19,CCOC(=O)N1CCN(c2cc(C)nc3nc(C)nn23)CC1,-32.9%
20,CCOCCCN(C)C1CCN(C(=O)c2oc3ccccc3c2NC(=O)COc2cccc(C)c2)CC1,-82.2%
21,COc1ccc(C2NCCc3sccc32)cc1 (centres unmarked),2.97%
22,O=C(CN1C(=O)NC2(CCCc3ccccc32)C1=O)N1CCN(C(=O)c2ccco2)CC1 (centres unmarked),-34.3%

row,SMILES,"hERG current change (%, negative = inhibition) at 10uM"
1,CCOC(=O)c1ccc2nc(CCC(=O)N[C@H](C(=O)OC)C(C)C)c(=O)n(CC)c2c1,-9.78%
2,Cc1ccc(S(=O)(=O)N2CCN(C(=O)CCC(=O)NCc3cccc(C(F)(F)F)c3)CC2)cc1,-54.2%
3,O=C(NCc1cccnc1)C1CCN(S(=O)(=O)c2cccc(C(F)(F)F)c2)CC1,2.69%
4,COc1cc(Br)c(-c2sc(Nc3ccccc3)n[n+]2-c2ccccc2)cc1OC.[Cl-],-68.7%
5,Cc1[nH]nc(N=CC2=C(O)CC(C)(C)CC2=O)c1-c1ccc(Cl)cc1,-14.2%
6,O=[N+]([O-])c1ccc(Cc2ccncc2)cc1,-26.9%
7,CC1Sc2ccc(S(=O)(=O)N3CCC(C(=O)Nc4ccc(Cl)cc4)CC3)cc2NC1=O (centres unmarked),7.35%
8,CCCCNC(=O)c1nn2c(C(F)(F)F)cc(-c3ccc(OC)cc3)nc2c1Br,5.02%
9,COc1ccc(OC)c(S(=O)(=O)N(C)CC(=O)Nc2ccccc2OC)c1,-20.2%
10,COc1cc(OC)cc(C(=O)N[C@H](C(=O)Nc2ccc(NC(C)=O)cc2)C(C)C)c1,13%
11,Cc1csc(SCC(=O)c2cc(C)n(Cc3cccs3)c2C)n1,3.01%
12,CCOC(=O)c1oc2ccc(S(=O)(=O)n3nc(-c4ccc(OC)cc4)cc3N)cc2c1C,18.4%
13,NC(=S)NNC(=S)Nc1ccccc1,22.8%
14,CCCN(CC1CC1)C(=S)Nc1ccccc1F,14.5%
15,CN(Cc1ccccc1F)C(=O)c1sccc1-c1ccccc1,-28.2%
16,CCOC(=O)C1CCN(S(=O)(=O)c2csc(C(N)=O)c2)CC1,-17%
17,Cc1cc(C(=O)N(C)C)sc1-c1ccccc1,3.39%
18,CN1CCN(C(=O)CCCOc2ccc(Cl)cc2Cl)CC1,-61.6%
19,Cc1ccc(NC(=O)c2nc(S(=O)(=O)Cc3ccccc3)ncc2Cl)cc1,5.59%
20,CCN(C(=O)COC(=O)c1cccn1C)C1CCS(=O)(=O)C1 (centres unmarked),11.1%
21,CCCCn1c(NS(=O)(=O)c2ccc(C)cc2)c(C(=O)OCC)c2nc3ccccc3nc21,-5.12%
22,CN(C)C(=O)c1cc(C(=O)c2ccccc2Cl)c[nH]1,11.8%
